In ChEMBL document CHEMBL5724801, “EUbOPEN Chemogenomics Library - Multiplex” (2024):
The source holds more than one record for some entries. This is not the full list of results. The source may hold further records. The records of an entry repeat one measurement (runs, samples, wells, individuals or studies).

Legend:
Format in all cases: toxicity, cell-based
Fibroblast = test: Multiplex assay against human fibroblast
In short: (§1)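 Compound was added to live cells that had been stained at seeding with Hoechst33342, BioTracker Green Microtubule Cytoskeleton Dye, MitoTracker Red and Annexin V Alexa Fluor 680, and imaging followed on a CQ1 microscope at 37°C and 5% CO2. CellPathfinder machine-learning gating divided cells into Hoechst high-intensity objects or normal cells, normal cells into healthy, pyknosed or fragmented nuclei, and pyknosed cells into mitotic or apoptotic. Tubulin, mitochondrial-mass and membrane-permeability phenotypes are per cents of healthy-nucleus cells.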

HEK-293T = test: Multiplex assay against HEK293T; settings: human; in short: as §1
U2OS = test: Multiplex assay against U2OS; settings: human; in short: as §1
[1] = 12 h, 1 µM, compound concentration 1 uM
[2] = 24 h, 1 µM, compound concentration 1 uM
[3] = 48 h, 1 µM, compound concentration 1 uM
[4] = 48 h, 10 µM, compound concentration 10 uM
[5] = 12 h, 10 µM, compound concentration 10 uM
[6] = 24 h, 10 µM, compound concentration 10 uM

Structure (SMILES)	Population Apoptotic (%) (Fibroblast; [2])	Population Mitochondria Different-Phenotype (%) (Fibroblast; [4])	Population Healthy Nuclei (%) (HEK-293T; [1])	Population Mitochondria Different-Phenotype (%) (HEK-293T; [1])	Population Tubulin-Different-Phenotype (%) (HEK-293T; [1])	Population Healthy Nuclei (%) (HEK-293T; [5])	Population Mitochondria Different-Phenotype (%) (HEK-293T; [5])	Total Cell Count (HEK-293T; [2])	Population Apoptotic (%) (HEK-293T; [3])	Population Pyknosed Nuclei (%) (HEK-293T; [3])	Population Tubulin-Different-Phenotype (%) (HEK-293T; [3])	Total Cell Count (HEK-293T; [3])	Population Tubulin-Different-Phenotype (%) (HEK-293T; [4])	Total Cell Count (HEK-293T; [4])	Population Mitochondria Different-Phenotype (%) (U2OS; [5])	Population Mitochondria Different-Phenotype (%) (U2OS; [6])	Total Cell Count (U2OS; [3])	Population Mitochondria Different-Phenotype (%) (Fibroblast; [3])	Population Healthy Nuclei (%) (HEK-293T; [6])	Total Cell Count (U2OS; [4])	further results
CNc1nc(NCc2ncccn2)c2c(-c3ccc4ncccc4c3)c[nH]c2n1	1.85% and 12.5%	17.09% and 2.97%	62.31% and 19.38%	45.16% and 8%	3.23% and 20%	51.6% and 7.95%	37.27% and 7.14%	647 and 133	6.54% and 19.64%	8.06% and 32.94%	0.94% and 40%	1327 and 171	1.92% and 59%	602 and 185	1.36% and 17.16%	0.53% and 13.22%	1052 and 335	–	–	–	Population Apoptotic (%) (Fibroblast; [1]): 5% and 24.14%; Population Tubulin-Different-Phenotype (%) (Fibroblast; [3]): 4.95% and 17.61%; Total Cell Count (HEK-293T; [1]): 399 and 129; Population Pyknosed Nuclei (%) (HEK-293T; [6]): 22.12% and 68.25%; Population Pyknosed Nuclei (%) (HEK-293T; [4]): 9.14% and 38.89%
CCOc1ccccc1C(=O)NCC1(N2CCN(CC)CC2)CCCCC1	–	–	47.94% and 11.03%	34.44% and 6.25%	–	–	–	–	5.41% and 18.87%	14.42% and 56.38%	2.32% and 61.04%	1026 and 188	13.6% and 79.59%	733 and 198	4.82% and 73.33%	5.11% and 79.81%	847 and 229	15.75% and 3.47%	64.34% and 18.18%	870 and 212	Population Fragmented Nuclei (%) (Fibroblast; [1]): 19.3% and 6.1%; Population Healthy Nuclei (%) (HEK-293T; [2]): 68.34% and 16.57%; Population Mitochondria Different-Phenotype (%) (U2OS; [1]): 0.31% and 12.26%; Total Cell Count (U2OS; [6]): 562 and 159; Population Mitochondria Different-Phenotype (%) (U2OS; [3]): 0.13% and 11.59%; Population Membrane Permeable-Phenotype (%) (U2OS; [4]): 2.63% and 13.33%; Population Mitochondria Different-Phenotype (%) (U2OS; [4]): 2.91% and 35.56%
CN(C)CCOc1ccc(/C(=C(/CCCO)c2ccccc2)c2ccc(O)cc2)cc1	6.52% and 21.21%	–	58.82% and 15.57%	–	8.64% and 26.92%	39.81% and 6.43%	–	536 and 166	–	12.67% and 46.57%	3.23% and 44.86%	1155 and 204	26.65% and 88.89%	522 and 137	3.64% and 80.41%	10.07% and 72.29%	950 and 306	14.29% and 3.23%	46.03% and 14.06%	625 and 175	Population Tubulin-Different-Phenotype (%) (Fibroblast; [3]): 7.59% and 23.5%; Population Healthy Nuclei (%) (HEK-293T; [4]): 62.3% and 20%; Population Mitochondria Different-Phenotype (%) (U2OS; [1]): 0.28% and 14.39%; Population Mitochondria Different-Phenotype (%) (U2OS; [2]): 0.21% and 12.72%; Population Mitochondria Different-Phenotype (%) (U2OS; [3]): 0.24% and 12%; Population Membrane Permeable-Phenotype (%) (U2OS; [4]): 4.32% and 23.26%; Population Mitochondria Different-Phenotype (%) (U2OS; [4]): 3.46% and 55.81%
O=C1c2c(Br)c(Br)c(Br)c(Br)c2C(=O)N1c1ncc[nH]1	8.57% and 40%	17.22% and 5.5%	–	–	4.17% and 20%	68.54% and 18.75%	–	602 and 118	–	8.71% and 27.75%	1% and 32.2%	1595 and 177	0.59% and 13.99%	1337 and 308	–	–	–	18.75% and 2.28%	–	1101 and 306	Population Mitochondria Different-Phenotype (%) (Fibroblast; [5]): 1.6% and 17.61%; Population Apoptotic (%) (Fibroblast; [3]): 36.36% and 7.14%; Population Apoptotic (%) (Fibroblast; [4]): 75% and 23.53%; Population Mitotic Cells (%) (Fibroblast; [4]): 25% and 76.47%; Population Tubulin-Different-Phenotype (%) (Fibroblast; [4]): 5.56% and 24.5%; Population Tubulin-Different-Phenotype (%) (HEK-293T; [5]): 5.74% and 40%; Population Pyknosed Nuclei (%) (HEK-293T; [2]): 15.95% and 57.63%; Population Pyknosed Nuclei (%) (HEK-293T; [6]): 15.77% and 60.92%; Total Cell Count (HEK-293T; [6]): 577 and 174; Total Cell Count (U2OS; [5]): 438 and 140; Total Cell Count (U2OS; [6]): 615 and 187
CC(C)C[C@H](NC(=O)c1cc2ccccc2s1)C(=O)N1CCN(C(=O)[C@H](CO)NS(=O)(=O)c2ccc(Cl)cc2Cl)CC1	3.92% and 51.16%	–	–	–	–	39.24% and 8.63%	42.48% and 8.33%	–	–	13.98% and 46.73%	4.67% and 57.27%	1017 and 215	–	–	–	–	706 and 116	–	45.13% and 14.09%	–	Population Apoptotic (%) (Fibroblast; [1]): 11.11% and 44.44%; Population Apoptotic (%) (Fibroblast; [3]): 14.29% and 50%; Population Membrane Permeable-Phenotype (%) (Fibroblast; [3]): 1.34% and 11.64%; Population Mitochondria Different-Phenotype (%) (U2OS; [1]): 1.66% and 20%; Total Cell Count (U2OS; [1]): 392 and 89; Population Mitochondria Different-Phenotype (%) (U2OS; [2]): 0.7% and 11.11%; Population Mitotic Cells (%) (U2OS; [2]): 28.24% and 9.09%; Total Cell Count (U2OS; [2]): 439 and 88; Population Mitochondria Different-Phenotype (%) (U2OS; [3]): 0.53% and 15.29%
Cc1noc(C)c1-c1cnc2c(-c3ccc(C(=O)O)cc3)cn([C@@H](C)c3ccccn3)c2c1 [PLX-51107]	17.86% and 5.56%	17.44% and 4.21%	58% and 18.54%	24.01% and 3.57%	–	–	14.79% and 1.37%	754 and 230	5.04% and 20.48%	9.62% and 31.32%	–	1447 and 265	–	–	–	–	–	14.29% and 0.46%	–	755 and 232	Total Cell Count (HEK-293T; [1]): 481 and 151; Population Fragmented Nuclei (%) (HEK-293T; [5]): 2.27% and 19.57%; Population Fragmented Nuclei (%) (HEK-293T; [6]): 1.23% and 19.09%; Population Apoptotic (%) (HEK-293T; [4]): 4.67% and 19.13%; Population Fragmented Nuclei (%) (HEK-293T; [4]): 3.37% and 16.98%
COCCNc1nc2ccc(C#CC3(O)CCCCC3)cc2n1-c1ccnc(N)n1	–	–	58.36% and 13.74%	32.27% and 5.56%	4.55% and 16.67%	31.43% and 9.64%	16.36% and 50%	595 and 168	–	–	1.02% and 19.88%	1579 and 254	7.82% and 53.23%	790 and 206	0.57% and 43.48%	0% and 27.21%	894 and 194	20.87% and 4%	44.47% and 14.11%	769 and 249	Total Cell Count (U2OS; [1]): 363 and 109; Total Cell Count (U2OS; [2]): 465 and 128; Population Mitochondria Different-Phenotype (%) (U2OS; [4]): 0.79% and 10.9%
